# According to the supplement of paper PMC7826260:
# The list shows a part of the results. Viral Rep nickase domains cut single-stranded DNA in vitro (3 µM enzyme, 1 h, 37 °C); shown is the middle of each 90-letter strand. A value is the log2 ratio of uncut reads to the pool without enzyme; strong cutting gives strongly negative numbers. There is no active / inactive call. Counts are relative to all reads, so uncut sequences can rise above 0 when many others are cut.
# System: T1, Rep nickase domain of tomato golden mosaic virus
# T1 sequence (residues 1-124, tag not shown): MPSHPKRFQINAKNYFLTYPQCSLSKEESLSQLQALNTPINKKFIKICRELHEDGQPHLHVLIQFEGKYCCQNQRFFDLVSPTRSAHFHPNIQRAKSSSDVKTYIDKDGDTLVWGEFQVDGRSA
# Test: uncleaved DNA left, log2 of reads against the no-enzyme library (log2 ratio); higher = less cleavage (more negative = more Rep cleavage of the k-mer); sequences stand for … in CTCGTCCG…ACCGGAGA
# Method: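 A pool of 90-nt single-stranded DNAs with seven random bases just before the constant AC of the nick site (name = the seven bases) was cut by 3 µM recombinant His6-SUMO-tagged Rep nickase domain (300 nM DNA, 50 mM HEPES pH 8.0, 50 mM NaCl, 1 mM MnCl2, 1 h, 37 °C, three replicates). Uncut DNA was amplified and sequenced.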
row,Sequence,uncleaved DNA left (log2)
1,CTGTCAG,-0.16
2,CACGTAT,0.198
3,CAAAGGT,0.143
4,CAAAGTA,0.0561
5,GAGTTGA,0.116
6,TACGTAT,0.0289
7,GGACCCG,0.00668
8,CGGTATG,-0.0668
9,ACTTTAG,0.0822
10,AACAACT,-0.0573
11,GGACCCA,-0.0146
12,AAGCTCG,0.134
13,GAAGACT,0.174
14,TCAACCC,-0.0174
15,CGTTTAG,0.131
16,ATTGGGT,0.0473
17,TAGTATA,0.0826
18,AGGCAAA,0.0775
19,GGAATGT,0.121
20,CCTTGTC,-0.0702

row,Sequence,uncleaved DNA left (log2)
1,ACTAGAT,-0.0408
2,CGAAGTG,-0.0919
3,AAAACGG,0.208
4,TCTTCTT,-0.105
5,TGGAACC,0.0647
6,TTGTGAA,0.0215
7,TTCCAAA,-0.16
8,TTGATGT,-0.0469
9,CCCCGCG,0.0294
10,GATGGCT,0.0455
11,TTGCAAA,0.171
12,CATGTCG,-0.0679
13,TCTGGAA,0.0141
14,TACCCAT,-0.0845
15,CGAGTAA,0.212
16,AACTGTA,-0.0529
17,CTGAACC,-0.0408
18,TTAATTT,-0.194
19,ATTGATT,-0.013
20,GAATACC,-0.00171
